According to publication PMC4336329 (PLoS ONE, 2015):
Screen size: about 310,000 compounds; about 14,000 (4.5%) showed an effect of 50% or more. The effect is printed as a negative number. This is one part of the list.

These compounds were tested against human ether-à-go-go-related gene (hERG) potassium channel (human, UniProt Q12809) (assay: primary screen, population patch clamp on CHO cells stably expressing hERG).
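Note: peak tail current of the secondary pulse compared with the same well before compound.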

Chain of human ether-à-go-go-related gene (hERG) potassium channel (Q12809 whole entry, looked up): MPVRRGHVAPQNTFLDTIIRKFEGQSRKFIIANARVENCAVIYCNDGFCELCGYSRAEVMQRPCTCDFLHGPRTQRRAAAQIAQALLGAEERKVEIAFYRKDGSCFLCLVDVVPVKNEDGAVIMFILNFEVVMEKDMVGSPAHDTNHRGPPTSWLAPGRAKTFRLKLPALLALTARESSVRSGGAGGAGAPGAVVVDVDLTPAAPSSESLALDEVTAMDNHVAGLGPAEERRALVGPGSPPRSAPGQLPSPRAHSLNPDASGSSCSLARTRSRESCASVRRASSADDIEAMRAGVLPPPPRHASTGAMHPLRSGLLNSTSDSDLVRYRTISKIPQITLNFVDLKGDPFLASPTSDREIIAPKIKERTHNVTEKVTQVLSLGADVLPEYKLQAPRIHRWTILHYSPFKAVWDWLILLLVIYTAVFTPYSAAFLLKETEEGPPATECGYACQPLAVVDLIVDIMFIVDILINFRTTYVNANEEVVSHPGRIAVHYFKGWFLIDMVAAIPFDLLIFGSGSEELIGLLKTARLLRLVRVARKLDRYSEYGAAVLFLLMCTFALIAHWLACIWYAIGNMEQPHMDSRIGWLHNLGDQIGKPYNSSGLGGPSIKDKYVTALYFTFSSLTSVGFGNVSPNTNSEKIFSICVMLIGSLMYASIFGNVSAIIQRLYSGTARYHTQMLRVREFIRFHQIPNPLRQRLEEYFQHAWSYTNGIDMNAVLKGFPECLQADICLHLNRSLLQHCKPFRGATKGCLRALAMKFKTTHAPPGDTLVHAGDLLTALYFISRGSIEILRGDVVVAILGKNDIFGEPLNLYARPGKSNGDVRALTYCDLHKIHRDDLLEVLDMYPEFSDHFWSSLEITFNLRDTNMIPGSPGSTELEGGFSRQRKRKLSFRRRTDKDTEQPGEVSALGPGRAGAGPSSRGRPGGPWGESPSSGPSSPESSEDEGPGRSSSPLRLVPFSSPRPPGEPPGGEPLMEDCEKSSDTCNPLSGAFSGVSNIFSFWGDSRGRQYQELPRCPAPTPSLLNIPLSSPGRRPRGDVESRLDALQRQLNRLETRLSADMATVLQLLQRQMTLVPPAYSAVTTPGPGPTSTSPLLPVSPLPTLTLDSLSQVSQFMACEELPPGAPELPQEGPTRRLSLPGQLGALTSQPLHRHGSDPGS

Row | SMILES | hERG current change (%, negative = inhibition) at 10uM [%]
1 | CC(=O)Nc1ccc(C(=O)OCC(=O)NC(=O)NC(C)(C)C)cc1 | 9.31
2 | C=CCOc1cccc(C2C(C(=O)c3ccco3)=C(O)C(=O)N2Cc2cccnc2)c1 (stereo not drawn) | 21.8
3 | CC(C)c1ccc(/C=N/Nc2ccc(C(=O)O)cc2)cc1 | 18
4 | Cc1ccc(SCCc2ccc(C)nc2)cc1 | -9.97
5 | CCCCCCCCNC(=O)CCNC(=O)c1ccc(C(C)(C)C)cc1 | 8
6 | COc1ccc(CCNC(=O)Cn2nnc(C(=O)Nc3ccc(Br)cc3)c2N)cc1OC | -14.1
7 | CCOC(=O)C1CCN(CC(=O)c2c(C)[nH]c3ccccc23)CC1 | -39.7
8 | Oc1cccc(C2c3[nH]c4ccccc4c3CCN2Cc2ccc3c(c2)CCO3)c1 (stereo not drawn) | 9.6
9 | NC(=O)c1nsc(C(=O)N(Cc2ccco2)C(C(=O)NCc2ccc(F)cc2)c2ccc(O)cc2)c1N (stereo not drawn) | -43.8
10 | CCOc1ccccc1Nc1ncnc2ccc(Br)cc12 | 19.9
11 | Cc1ccc(NC(=O)CN(C)C(=O)c2ccc(Cl)nc2)cc1 | -21.3
12 | CCOC(=O)C1CCN(C(=S)NC2CCCC2)CC1 | 0.997
13 | COc1ccc(NC(=O)c2ccc(C#N)cc2)cc1NS(=O)(=O)c1ccc(F)cc1 | 5.85
14 | O=C(CP(=O)(O)CC(=O)c1ccccc1)c1ccccc1 | 9.81
15 | O=C(c1ccc(Cl)nc1)N1CCN(C/C=C/c2ccccc2)CC1 | -44.1
16 | O=C(Nc1cccc(Cl)c1)C1CCCN(c2cnccn2)C1 (stereo not drawn) | -10.8
17 | O=C(CCc1nnc(C2CCCCC2)o1)N1CCN(c2ccccc2F)CC1 | -4.06
18 | O=C1COCC(=O)N1CCc1c[nH]c2ccccc12 | 17.1
19 | CN(Cc1ccco1)C(=O)C1CCCN(c2ncnc3c2nc2n3CCCCC2)C1 (stereo not drawn) | 5.57
20 | C/C(CC(=O)Nc1ccccn1)=N\NC(=O)C(=O)Nc1cccc(Cl)c1C | 8.23
21 | CCOc1ccc(S(=O)(=O)Nc2cccc(C(=O)N3CCN(c4ccc(OC)cc4)CC3)c2)cc1 | -15.8
22 | COc1cc(OC)cc(C(=O)OCC(=O)N(C)c2ccccc2)c1 | 13.4
23 | CCN(Cc1ccncc1)C(=O)CCc1nnc(CCc2ccc(OC)cc2)o1 | 0.939

Row | SMILES | hERG current change (%, negative = inhibition) at 10uM [%]
24 | Cc1ccc(NC(=O)c2cccs2)cc1S(=O)(=O)N(C)C | -4.53
25 | CCN(CC)S(=O)(=O)c1ccc(C(=O)NCCN2C(=O)S/C(=C\c3cccnc3)C2=O)cc1 | 8.89
26 | N#Cc1c(NCc2ccccc2)ccnc1NCc1cccnc1 | -18.7
27 | CN(c1ccc(C(=O)NCc2ccccn2)cc1)S(C)(=O)=O | -4.43
28 | COc1cc(C(=O)Nc2ccc3c(c2)N(C(=O)CCN(C)C)c2ccccc2CC3)cc(OC)c1OC.Cl | -12.2
29 | O=C(Nc1ccc(OC(F)(F)F)cc1)c1ccc(S(=O)(=O)N2CCOCC2)o1 | -53.7
30 | Cc1ccccc1/C=C1\SC(=S)N(/N=C/c2cc([N+](=O)[O-])ccc2O)C1=O | 8.13
31 | O=C(O)CC[C@@H](C(=O)O)N1C(=O)c2ccccc2C1=O | -6.45
32 | FC(F)(F)c1cccc(-c2noc(CN3CCOCC3)n2)c1 | 6.74
33 | CC1CCCN(S(=O)(=O)c2ccc3oc(=O)ccc3c2)C1 (stereo not drawn) | -19.4
34 | O=C(O)c1cc(NCc2c(F)cccc2Cl)ccc1N1CCOCC1 | -21.1
35 | CCc1cc(C(=O)N2CCN(S(=O)(=O)c3ccccc3F)CC2)sc1C | -3.67
36 | CC(=O)c1cn(CCC(C)C)c(=O)[nH]c1=O | -0.467
37 | O=C1Cc2cccc3cccc1c23 | 13.2
38 | COc1ccc2c(c1)OC(O)(C(F)(F)F)CC2=O (stereo not drawn) | -5.68
39 | COc1ccc(C(=O)CSc2n[nH]c(C)n2)cc1[N+](=O)[O-] | 2.65
40 | CCN(CC)CCNC(=O)c1ccc(NC(=O)COc2ccc3c(c2)CCC3)cc1 | -48.5
41 | COCCSc1ccccc1C(=O)NCCc1ccccc1 | -3.39
42 | CCCCCCCN(C(=O)CCl)c1cccc(C)c1 | -6.98
43 | COc1ccc(C(CC(=O)N2CCCC2)C(C)C)cc1 (stereo not drawn) | -2.25
44 | COc1cc2[nH]c(=S)n(Cc3ccco3)c(=O)c2cc1OC | -1.76
45 | S=c1nc[nH]c2c1cnn2-c1ccccc1 | 19.4
